Results on 25 compounds are retold here after the supplement of paper PMC4604168 (melanoma cell lines).

Some test systems named below: WM115; WM1716; WM1745; WM3526; WM3619; WM451Lu.
What all share (assay): cell count relative to DMSO control; melanoma cells; higher = more viable cells
Common to all, as to settings: library dose: low library concentration; 72 h

SMILES strings stand for the structures. This is one part of the list. Most values come without repeats; read them as rough.
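Also: cell number obtained by counting DAPI-stained nuclei in high-throughput microscope images with image analysis software, screen run in 1,536-well plates.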

Consider `C=C(c1ccc(C(=O)O)cc1)c1cc2c(cc1C)C(C)(C)CCC2(C)C` [Bexarotene] + CC(C)CCN1c2nc(Nc3cc(F)c(O)c(F)c3)ncc2N(C)C(=O)C1C [BID1870] (first compound 2 µM, partner dose 0.2 µM), for which the cell count in the assay with WM115 amounted to 107%; in the assay with WM1716 it was 64.9%; in the assay with WM1745 it was 84.6%; in the assay with WM3526 it was 79.8%; in the assay on WM3619 it was 112%; with WM451Lu, 78.7%.
With `CS(=O)(=O)c1ccc(C(=O)Nc2ccc(Cl)c(-c3ccccn3)c2)c(Cl)c1` [vismodegib] + Cn1nnc2c(C(N)=O)ncn2c1=O [temozolomide] (first compound 1 µM, partner dose 2 µM), the cell count in the assay with WM115 turned out to be 109%; in the assay on WM1716, 94.5%; in the assay with WM1745, 124%; in the assay with WM3526 it was 84.7%; with WM3619, 123%; in the assay on WM451Lu it was 111%.
As for `CN(c1ncccc1CNc1nc(Nc2ccc3c(c2)CC(=O)N3)ncc1C(F)(F)F)S(C)(=O)=O` + CC(=O)c1c(C)c2cnc(Nc3ccc(N4CCNCC4)cn3)nc2n(C2CCCC2)c1=O [palbociclib] (first compound 0.08 µM, partner dose 0.04 µM), the cell count amounted to 52.8% with WM115; 63% in the assay with WM1716; 70.8% in the assay with WM1745; 74.3% in the assay with WM3526; 85.7% with WM3619; 69.6% in the assay with WM451Lu.
Consider `CS(=O)(=O)c1ccc(C(=O)Nc2ccc(Cl)c(-c3ccccn3)c2)c(Cl)c1` [vismodegib] + O=S(=O)(c1ccccc1)N(CC(F)(F)F)c1ccc(C(O)(C(F)(F)F)C(F)(F)F)cc1 [T0901317] (first compound 1 µM, partner dose 1.4 µM), for which the cell count in the assay with WM115 was 90.3%; in the assay with WM1716, 92.1%; with WM1745 it was 83.1%; in the assay on WM3526 it was 88.5%; in the assay with WM3619, 88.1%; with WM451Lu, 106%.
For `C=C(c1ccc(C(=O)O)cc1)c1cc2c(cc1C)C(C)(C)CCC2(C)C` [Bexarotene] + c1cc(-c2cnn3cc(-c4ccc(OCCN5CCCCC5)cc4)cnc23)ccn1 [Dorsomorphin] (first compound 2 µM, partner dose 0.4 µM), the cell count with WM115 was determined as 91.5%; with WM1716, 90.9%; in the assay on WM1745 it was 79.5%; in the assay with WM3526, 87.1%; in the assay with WM3619 it was 105%; with WM451Lu, 93.8%.
On to `CCCS(=O)(=O)Nc1ccc(F)c(C(=O)c2c[nH]c3ncc(Cl)cc23)c1F` + Cc1cc([N+](=O)[O-])ccc1NS(=O)(=O)c1cc(Cl)ccc1Cl [FH535] (first compound 0.08 µM, partner dose 1 µM), for which the cell count in the assay with WM115 was found to be 80.8%; with WM1716 it was 98.9%; in the assay with WM1745, 89.1%; in the assay with WM3526, 66.3%; in the assay on WM3619, 72.5%; with WM451Lu, 98%.
For `CN(c1ncccc1CNc1nc(Nc2ccc3c(c2)CC(=O)N3)ncc1C(F)(F)F)S(C)(=O)=O` + O=C(O)c1ccc2c(c1)nc(Nc1cccc(Cl)c1)c1ccncc12 [CX4945] (first compound 0.08 µM, partner dose 0.4 µM), the cell count with WM115 turned out to be 88%; in the assay with WM1716, 86.4%; with WM1745 it was 94.6%; in the assay with WM3526 it was 111%; with WM3619, 95.7%; with WM451Lu it was 79.6%.
In the case of `C=C(c1ccc(C(=O)O)cc1)c1cc2c(cc1C)C(C)(C)CCC2(C)C` [Bexarotene] + Cn1nnc2c(C(N)=O)ncn2c1=O [temozolomide] (first compound 2 µM, partner dose 2 µM), the cell count turned out to be 86.8% with WM115; 65% in the assay on WM1716; 89.2% in the assay on WM1745; 79.1% in the assay on WM3526; 63.6% in the assay with WM3619; 96.4% in the assay with WM451Lu.
Turning to `C=C(c1ccc(C(=O)O)cc1)c1cc2c(cc1C)C(C)(C)CCC2(C)C` [Bexarotene] + NCC(=O)Nc1ccc(-n2nc(C(F)(F)F)cc2-c2ccc3c(ccc4ccccc43)c2)cc1 [OSU03012] (first compound 2 µM, partner dose 1 µM), the cell count was 98.8% in the assay on WM115; 89% in the assay on WM1716; 94% with WM1745; 52% in the assay with WM3526; 103% in the assay on WM3619; 54.4% in the assay on WM451Lu.
Consider `CS(=O)(=O)c1ccc(C(=O)Nc2ccc(Cl)c(-c3ccccn3)c2)c(Cl)c1` [vismodegib] + Cc1ccc(NC(=O)c2cccc(N(C)C)c2)cc1NC(=O)c1ccc(O)cc1 [ZM336372] (first compound 1 µM, partner dose 2 µM), for which the cell count with WM115 amounted to 104%; in the assay on WM1716, 118%; with WM1745, 89.7%; in the assay on WM3526, 102%; in the assay on WM3619 it was 92%; in the assay with WM451Lu, 120%.
In the case of `CS(=O)(=O)c1ccc(C(=O)Nc2ccc(Cl)c(-c3ccccn3)c2)c(Cl)c1` [vismodegib] + O=c1cc(-c2cccc3c2Sc2ccccc2S3)oc(N2CCOCC2)c1 [KU55933] (first compound 1 µM, partner dose 1 µM), the cell count in the assay with WM115 worked out at 96.6%; in the assay with WM1716, 109%; in the assay on WM1745, 101%; in the assay on WM3526, 116%; in the assay with WM3619, 104%; with WM451Lu, 101%.
Turning to `CN(c1ncccc1CNc1nc(Nc2ccc3c(c2)CC(=O)N3)ncc1C(F)(F)F)S(C)(=O)=O` + O=C(Nc1cccc(Cl)c1)Nc1ncc(CCNc2ncnc3ccsc23)s1 [SNS314] (first compound 0.08 µM, partner dose 0.0008 µM), the cell count in the assay with WM115 was determined as 69%; in the assay on WM1716, 88.5%; in the assay with WM1745 it was 80.7%; with WM3526 it was 85%; in the assay with WM3619, 106%; with WM451Lu, 78%.
Take `CCCS(=O)(=O)Nc1ccc(F)c(C(=O)c2c[nH]c3ncc(Cl)cc23)c1F` + OCCn1cc(-c2cnc3nnn(Cc4ccc5ncccc5c4)c3n2)cn1 [PF04217903] (first compound 0.08 µM, partner dose 1 µM): the cell count with WM115 turned out to be 98.2%; in the assay on WM1716, 113%; in the assay on WM1745, 94.4%; in the assay on WM3526, 58.2%; with WM3619 it was 104%; in the assay on WM451Lu it was 102%.
For the compound `CS(=O)(=O)c1ccc(C(=O)Nc2ccc(Cl)c(-c3ccccn3)c2)c(Cl)c1` [vismodegib] + COC(=O)c1sccc1S(=O)(=O)Nc1ccc(Nc2ccccc2)cc1OC [GSK0660] (first compound 1 µM, partner dose 1 µM), the cell count with WM115 stood at 97.1%; in the assay on WM1716 it was 102%; in the assay with WM1745, 97.9%; with WM3526, 104%; with WM3619, 80.7%; with WM451Lu, 104%.
As to `CN(c1ncccc1CNc1nc(Nc2ccc3c(c2)CC(=O)N3)ncc1C(F)(F)F)S(C)(=O)=O` + CNC(=O)c1cc(Oc2ccc(NC(=O)Nc3ccc(Cl)c(C(F)(F)F)c3)cc2)ccn1 [sorafenib] (first compound 0.08 µM, partner dose 0.4 µM), the cell count in the assay on WM115 turned out to be 82.5%; in the assay on WM1716 it was 74.1%; in the assay with WM1745, 107%; in the assay on WM3526 it was 100%; in the assay on WM3619 it was 88.4%; in the assay with WM451Lu it was 64.1%.
`CCCS(=O)(=O)Nc1ccc(F)c(C(=O)c2c[nH]c3ncc(Cl)cc23)c1F` + COc1cc2c(Oc3ccc4[nH]c(C)cc4c3F)ncnc2cc1OCCCN1CCCC1 [cediranib] (first compound 0.08 µM, partner dose 0.4 µM): the cell count in the assay on WM115 is 88.6%; in the assay on WM1716, 92.3%; in the assay on WM1745 it was 82.7%; in the assay with WM3526, 52%; in the assay on WM3619, 120%; in the assay with WM451Lu it was 103%.
As for `NC1(c2ccc(-c3nc4ccn5c(=O)[nH]nc5c4cc3-c3ccccc3)cc2)CCC1` + COc1cc2c(Oc3ccc4[nH]c(C)cc4c3F)ncnc2cc1OCCCN1CCCC1 [cediranib] (first compound 0.4 µM, partner dose 0.4 µM), the cell count with WM115 came out at 76.3%; with WM1716 it was 105%; with WM1745, 93.5%; with WM3526, 79.8%; with WM3619, 104%; in the assay on WM451Lu it was 96.2%.
For `CS(=O)(=O)c1ccc(C(=O)Nc2ccc(Cl)c(-c3ccccn3)c2)c(Cl)c1` [vismodegib] + CO[C@H]1C[C@@H]2CC[C@@H](C)[C@@](O)(O2)C(=O)C(=O)N2CCCC[C@H]2C(=O)O[C@H]([C@H](C)C[C@@H]2CC[C@@H](OCCO)[C@H](OC)C2)CC(=O)[C@H](C)/C=C(\C)[C@@H](O)[C@@H](OC)C(=O)[C@H](C)C[C@H](C)/C=C/C=C/C=C/1C [everolimus] (first compound 1 µM, partner dose 0.02 µM), the cell count with WM115 was found to be 80.2%; with WM1716, 73.4%; in the assay on WM1745, 90.4%; in the assay on WM3526, 67.9%; in the assay with WM3619, 78.7%; with WM451Lu it was 68.8%.
As to `CCCS(=O)(=O)Nc1ccc(F)c(C(=O)c2c[nH]c3ncc(Cl)cc23)c1F` + C=CCNC1=C2C[C@@H](C)C[C@H](OC)[C@H](O)[C@@H](C)/C=C(\C)[C@H](OC(N)=O)[C@@H](OC)/C=C\C=C(/C)C(=O)NC(=CC1=O)C2=O [Tanespimycin] (first compound 0.08 µM, partner dose 0.002 µM), the cell count was 91.7% in the assay on WM115; 108% with WM1716; 97.9% in the assay on WM1745; 83.2% in the assay on WM3526; 107% in the assay on WM3619; 123% in the assay on WM451Lu.
Consider `CCCS(=O)(=O)Nc1ccc(F)c(C(=O)c2c[nH]c3ncc(Cl)cc23)c1F` + O=C(O)c1ccc(-c2c[nH]c3ncc(-c4ccccc4)cc23)cc1C1CCCC1 [GSK650394] (first compound 0.08 µM, partner dose 0.16 µM), for which the cell count turned out to be 87.9% in the assay with WM115; 101% in the assay on WM1716; 83.9% with WM1745; 65.9% in the assay on WM3526; 68% in the assay with WM3619; 91.6% with WM451Lu.
On to `CS(=O)(=O)c1ccc(C(=O)Nc2ccc(Cl)c(-c3ccccn3)c2)c(Cl)c1` [vismodegib] + O=C(Nc1cccc(Cl)c1)Nc1ncc(CCNc2ncnc3ccsc23)s1 [SNS314] (first compound 1 µM, partner dose 0.0008 µM), for which the cell count with WM115 came out at 80%; in the assay with WM1716 it was 118%; in the assay with WM1745, 108%; with WM3526 it was 93.1%; in the assay with WM3619 it was 130%; in the assay with WM451Lu it was 66.8%.
`NC1(c2ccc(-c3nc4ccn5c(=O)[nH]nc5c4cc3-c3ccccc3)cc2)CCC1` + Cn1cc(/C=C2\C(=O)Nc3cccnc32)c2ccccc21 [GW441756] (first compound 0.4 µM, partner dose 0.4 µM): the cell count in the assay on WM115 came to 78.9%; with WM1716 it was 93.6%; in the assay on WM1745, 89.8%; in the assay with WM3526 it was 66.3%; in the assay with WM3619, 85.7%; in the assay with WM451Lu it was 115%.
`CCCS(=O)(=O)Nc1ccc(F)c(C(=O)c2c[nH]c3ncc(Cl)cc23)c1F` + N#Cc1c(O)c2c(-c3ccc(-c4ccccc4O)cc3)csc2[nH]c1=O [A769662] (first compound 0.08 µM, partner dose 2 µM): the cell count in the assay on WM115 is 95.1%; with WM1716, 127%; in the assay on WM1745 it was 82.2%; with WM3526, 81.4%; with WM3619 it was 107%; in the assay with WM451Lu it was 94.3%.
Consider `C=C(c1ccc(C(=O)O)cc1)c1cc2c(cc1C)C(C)(C)CCC2(C)C` [Bexarotene] + COc1cc(Nc2ncc(F)c(Nc3ccc4c(n3)NC(=O)C(C)(C)O4)n2)cc(OC)c1OC [Tamatinib] (first compound 2 µM, partner dose 0.4 µM), for which the cell count in the assay with WM115 was 84.5%; in the assay with WM1716, 92.6%; in the assay with WM1745 it was 72.9%; with WM3526, 71.3%; in the assay with WM3619, 93.6%; in the assay with WM451Lu, 76.1%.
In the case of `CS(=O)(=O)c1ccc(C(=O)Nc2ccc(Cl)c(-c3ccccn3)c2)c(Cl)c1` [vismodegib] + CN1CCN(c2ccc3nc(-c4c(N)c5c(F)cccc5[nH]c4=O)[nH]c3c2)CC1 [Dovitinib] (first compound 1 µM, partner dose 0.1 µM), the cell count in the assay on WM115 was 110%; in the assay on WM1716, 106%; in the assay on WM1745, 114%; in the assay with WM3526, 108%; in the assay on WM3619 it was 93.4%; in the assay with WM451Lu, 89.8%.
